# Reference: the supplement of paper PMC8728848
# The other results are listed elsewhere or left out.
# B1: SAOUHSC 00176 (Staphylococcus aureus) (protein)
# chain: MSKILKCITLAVVMLLIVTACGPNRSKEDIDKALNKDNSKDKPNQLTMWVDGDKQMAFYKKITDQYTKKTGIKVKLVNIGQNDQLENISLDAPAGKGPDIFFLAHDNTGSAYLQGLAAEIKLSKDELKGFNKQALKAMNYDNKQLALPAIVETTALFYNKKLVKNAPQTLEEVEANAAKLTDSKKKQYGMLFDAKNFYFNYPFLFGNDDYIFKKNGSEYDIHQLGLNSKHVVKNAERLQKWYDKGYLPKAATHDVMIGLFKEGKVGQFVTGPWNINEYQETFGKDLGVTTLPTDGGKPMKPFLGVRGWYLSEYSKHKYWAKDLMLYITSKDTLQKYTDEMSEITGRVDVKSSNPNLKVFEKQARHAEPMPNIPEMRQVWEPMGNASIFISNGKNPKQALDEATNDITQNIKILHPSQNDKKGD
# Key:
# Assay in all cases: glycan array binding signal (z-score within array); higher = stronger binding
# Settings in all cases: glycan notation: IUPAC condensed, linker removed
# [1] = molecular target: Gal(b1-3)GalNAc(b1-3)Gal(a1-4)Gal(b1-4)Glc
# How it was run: (§1)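 From the Consortium for Functional Glycomics database, 3228 arrays were curated, keeping only those whose protein sequence was available. Binding is given as a within-array Z-score averaged across arrays sharing a protein sequence and across linkers. Negative Z-scores can be read as non-binding.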
# [2] = molecular target: Gal(b1-3)GalNAc(b1-4)Gal(b1-4)Glc
# How it was run: as §1
# [3] = molecular target: Gal(b1-3)GalNAc(b1-4)[Neu5Ac(a2-3)]Gal(b1-4)Glc
# How it was run: as §1
# Gal(b1-3)GlcNAc = molecular target: Gal(b1-3)GlcNAc
# How it was run: as §1
# [4] = molecular target: Gal(b1-3)GlcNAc(a1-3)Gal(b1-4)GlcNAc
# How it was run: as §1
# [5] = molecular target: Gal(b1-3)GlcNAc(a1-6)Gal(b1-4)GlcNAc
# How it was run: as §1
# Gal(b1-3)GlcNAc(b1-2)Man = molecular target: Gal(b1-3)GlcNAc(b1-2)Man
# How it was run: as §1
# [6] = molecular target: Gal(b1-3)GlcNAc(b1-2)Man(a1-3)[Gal(b1-3)GlcNAc(b1-2)Man(a1-6)]Man(b1-4)GlcNAc(b1-4)GlcNAc
# How it was run: as §1
# [7] = molecular target: Gal(b1-3)GlcNAc(b1-2)Man(a1-3)[Gal(b1-3)GlcNAc(b1-2)Man(a1-6)]Man(b1-4)GlcNAc(b1-4)[Fuc(a1-6)]GlcNAc
# How it was run: as §1
# [8] = molecular target: Gal(b1-3)GlcNAc(b1-2)Man(a1-3)[GlcNAc(b1-4)][Gal(b1-3)GlcNAc(b1-2)Man(a1-6)]Man(b1-4)GlcNAc(b1-4)GlcNAc
# How it was run: as §1
# [9] = molecular target: Gal(b1-3)GlcNAc(b1-2)[Gal(b1-3)GlcNAc(b1-6)]Man(a1-6)[Gal(b1-3)GlcNAc(b1-2)Man(a1-3)]Man(b1-4)GlcNAc(b1-4)GlcNAc
# How it was run: as §1
# [10] = molecular target: Gal(b1-3)GlcNAc(b1-3)Gal(b1-3)GlcNAc
# How it was run: as §1
# [11] = molecular target: Gal(b1-3)GlcNAc(b1-3)Gal(b1-4)Glc
# How it was run: as §1
# [12] = molecular target: Gal(b1-3)GlcNAc(b1-3)Gal(b1-4)GlcNAc
# How it was run: as §1
# [13] = molecular target: Gal(b1-3)GlcNAc(b1-3)Gal(b1-4)GlcNAc(b1-2)Man(a1-3)[Gal(b1-3)GlcNAc(b1-3)Gal(b1-4)GlcNAc(b1-2)Man(a1-6)]Man(b1-4)GlcNAc(b1-4)GlcNAc
# How it was run: as §1
# [14] = molecular target: Gal(b1-3)GlcNAc(b1-3)Gal(b1-4)GlcNAc(b1-2)[Gal(b1-3)GlcNAc(b1-3)Gal(b1-4)GlcNAc(b1-6)]Man(a1-6)[Gal(b1-3)GlcNAc(b1-3)Gal(b1-4)GlcNAc(b1-2)Man(a1-3)]Man(b1-4)GlcNAc(b1-4)[Fuc(a1-6)]GlcNAc
# How it was run: as §1
# [15] = molecular target: Gal(b1-3)GlcNAc(b1-3)Gal(b1-4)GlcNAc(b1-3)Gal(b1-4)GlcNAc(b1-2)[Gal(b1-3)GlcNAc(b1-3)Gal(b1-4)GlcNAc(b1-3)Gal(b1-4)GlcNAc(b1-6)]Man(a1-6)[Gal(b1-3)GlcNAc(b1-3)Gal(b1-4)GlcNAc(b1-3)Gal(b1-4)GlcNAc(b1-2)Man(a1-3)]Man(b1-4)GlcNAc(b1-4)[Fuc(a1-6)]GlcNAc
# How it was run: as §1
# [16] = molecular target: Gal(b1-3)GlcNAc(b1-3)Gal(b1-4)GlcNAc(b1-6)[Gal(b1-3)GlcNAc(b1-3)]Gal(b1-4)Glc
# How it was run: as §1
# [17] = molecular target: Gal(b1-3)GlcNAc(b1-3)Gal(b1-4)[Fuc(a1-3)]GlcNAc
# How it was run: as §1
# [18] = molecular target: Gal(b1-3)GlcNAc(b1-3)Gal(b1-4)[Fuc(a1-3)]GlcNAc(b1-6)[Gal(b1-3)GlcNAc(b1-3)]Gal(b1-4)Glc
# How it was run: as §1
# [19] = molecular target: Gal(b1-3)GlcNAc(b1-3)GalNAc
# How it was run: as §1
# [20] = molecular target: Gal(b1-3)GlcNAc(b1-6)Gal(b1-4)GlcNAc
# How it was run: as §1
# [21] = molecular target: Gal(b1-3)GlcNAc(b1-6)GalNAc
# How it was run: as §1
# [22] = molecular target: Gal(b1-3)GlcNAc(b1-6)[Gal(b1-3)]GalNAc
# How it was run: as §1
# Gal(b1-3)GlcNAc6S = molecular target: Gal(b1-3)GlcNAc6S
# How it was run: as §1
# [23] = molecular target: Gal(b1-3)[Fuc(a1-4)]GlcNAc
# How it was run: as §1
# [24] = molecular target: Gal(b1-3)[Fuc(a1-4)]GlcNAc(b1-2)Man
# How it was run: as §1
# [25] = molecular target: Gal(b1-3)[Fuc(a1-4)]GlcNAc(b1-2)Man(a1-3)[Gal(b1-3)[Fuc(a1-4)]GlcNAc(b1-2)Man(a1-6)]Man(b1-4)GlcNAc(b1-4)[Fuc(a1-6)]GlcNAc
# How it was run: as §1
# [26] = molecular target: Gal(b1-3)[Fuc(a1-4)]GlcNAc(b1-3)Gal(b1-3)[Fuc(a1-4)]GlcNAc
# How it was run: as §1
# [27] = molecular target: Gal(b1-3)[Fuc(a1-4)]GlcNAc(b1-3)Gal(b1-4)[Fuc(a1-3)]GlcNAc
# How it was run: as §1
# [28] = molecular target: Gal(b1-3)[Fuc(a1-4)]GlcNAc(b1-6)GalNAc
# How it was run: as §1
# [29] = molecular target: Gal(b1-3)[GlcNAc(b1-6)]GalNAc
# How it was run: as §1
# [30] = molecular target: Gal(b1-3)[Neu5Ac(a2-6)]GalNAc
# How it was run: as §1
# [31] = molecular target: Gal(b1-3)[Neu5Ac(a2-6)]GlcNAc(b1-4)Gal(b1-4)Glc
# How it was run: as §1
# [32] = molecular target: Gal(b1-3)[Neu5Ac(b2-6)]GalNAc
# How it was run: as §1
# Gal(b1-4)Gal = molecular target: Gal(b1-4)Gal
# How it was run: as §1
# [33] = molecular target: Gal(b1-4)GalNAc(a1-3)[Fuc(a1-2)]Gal(b1-4)GlcNAc
# How it was run: as §1
# [34] = molecular target: Gal(b1-4)GalNAc(b1-3)[Fuc(a1-2)]Gal(b1-4)GlcNAc
# How it was run: as §1
binder,measurement,setting,value
B1,glycan array binding signal (z-score),[1],-0.122
same,glycan array binding signal (z-score),[2],-0.101
same,glycan array binding signal (z-score),[3],0.015
same,glycan array binding signal (z-score),Gal(b1-3)GlcNAc,-0.155
same,glycan array binding signal (z-score),[4],-0.064
same,glycan array binding signal (z-score),[5],-0.122
same,glycan array binding signal (z-score),Gal(b1-3)GlcNAc(b1-2)Man,-0.095
same,glycan array binding signal (z-score),[6],1.06
same,glycan array binding signal (z-score),[7],-0.032
same,glycan array binding signal (z-score),[8],0.259
same,glycan array binding signal (z-score),[9],-0.062
same,glycan array binding signal (z-score),[10],-0.17
same,glycan array binding signal (z-score),[11],-0.221
same,glycan array binding signal (z-score),[12],-0.103
same,glycan array binding signal (z-score),[13],-0.007
same,glycan array binding signal (z-score),[14],0.211
same,glycan array binding signal (z-score),[15],0.056
same,glycan array binding signal (z-score),[16],-0.098
same,glycan array binding signal (z-score),[17],-0.177
same,glycan array binding signal (z-score),[18],-0.098
same,glycan array binding signal (z-score),[19],-0.105
same,glycan array binding signal (z-score),[20],-0.058
same,glycan array binding signal (z-score),[21],-0.03
same,glycan array binding signal (z-score),[22],-0.098
same,glycan array binding signal (z-score),Gal(b1-3)GlcNAc6S,-0.116
same,glycan array binding signal (z-score),[23],-0.048
same,glycan array binding signal (z-score),[24],0.062
same,glycan array binding signal (z-score),[25],0.406
same,glycan array binding signal (z-score),[26],-0.218
same,glycan array binding signal (z-score),[27],-0.127
same,glycan array binding signal (z-score),[28],-0.159
same,glycan array binding signal (z-score),[29],0.043
same,glycan array binding signal (z-score),[30],-0.062
same,glycan array binding signal (z-score),[31],-0.049
same,glycan array binding signal (z-score),[32],-0.108
same,glycan array binding signal (z-score),Gal(b1-4)Gal,-0.101
same,glycan array binding signal (z-score),[33],-0.146
same,glycan array binding signal (z-score),[34],-0.108
